Assay results reported in the RNAGym collection of RNA variant scans (doi:10.7554/elife.90254).
The source gives no read counts; variants with many changes may rest on few reads.

B1: OR4K15 (parent)
chain: GUUAACGGUCAUAGGCCAUGGAAACUAGGAGCACCAUUUCGCUGCCAGUGAAGAAAUGAACAAAGAAAAUCUGGGCCAGGCAGGCAUCAAAAGAAAUAGUCUUGCGCUCAACCAGAAAGUCUGUAAUCAUUUUAAGGGUA

Variants of: B1
Assay: self-cleavage, relative activity (ratio to wild type); higher = more cleavage; in vitro, sequencing; the parent is a self-cleaving ribozyme

Row | Variant | self-cleavage
1 | GUUAACGGUCAUAGGCCAUGGAAGCUAGGAGCACCAUUUCGCUGCCAGUGAGGAAAUGAACAAAGAAGAUCUGGGCCAGGCAGGCAUCAAAAGAAAUAGUCUUGCGCUCAACCAGAAAGUCUGUAAUCAUUUUAAGGGUA [A24G A52G A68G] | 1.25
2 | GUUAACGGUCAUAGGCCAUGGAAGCUAGGAGCACCAUUUCGCUGCCAGUGAGGAAAUGAACAAAGAAUAUCUGGGCCAGGCAGGCAUCAAAAGAAAUAGUCUUGCGCUCAACCAGAAAGUCUGUAAUCAUUUUAAGGGUA [A24G A52G A68U] | 1.52
3 | GUUAACGGUCAUAGGCCAUGGAAGCUAGGAGCACCUUUUCGCUGCCAGUGAAGAAGUGAACAAAGAAAAUCUGGGCCAGGCAGGCAUCAAAAGAAAUAGUCUUGCGCUCAACCAGAAAGUCUGUAAUCAUUUUAAGGGUA [A24G A36U A56G] | 0.53
4 | GUUAACGGUCAUAGGCCAUGGAAGCUAGGAGCACCAUUUCGCUGCCAGUGUAGAAAUGAACAAAGGAAAUCUGGGCCAGGCAGGCAUCAAAAGGAAUAGUCUUGCGCUCAACCAGAAAGUCUGUAAUCAUUUUAAGGGUA [A24G A51U A66G A94G] | 0.69
5 | GUUAACGGUCAUAGGCCAUGGAACCUAGGAGCACCAUUUCGCUGCCAGUGAAGAAAUGAACAAAGAAAAUCUGGGCCAGGCAGGCACCAAAAGAAAUAGUCUUGCGCUCAACCAGAAAGUCUGUAGUCAUUUUAAGGGUA [A24C U87C A126G] | 0.87
6 | GUUAACGGUCAUAGGCCAUGGAAGCUAGGAGCACCAUUUCGCUGCCGGUGAAGAAAUGAACAAAGGAAAUCUGGGCCAGGCAGGCAUCAAAAGAAAUAGUCUUGCGCUCAACCAGAAAGUCUGUAAUCAUUUUAAGGGUA [A24G A47G A66G] | 0.37
7 | GUUAACGGUCAUAGGCCAUGGAAGCUAGGAGCACCAUUUCGCUGCCUGUGAAGAAAUGAACAAAGAAAAUCCGGGCCAGGCAGGCAUCAAAAGAAAUAGUCUUGCGCUCAACCAGAAAGUCUGUAAUCAUUUUAAGGGUA [A24G A47U U72C] | 0.24
8 | GUUAACGGUCAUAGGCCAUGGAAGCUAGGAGCACCGUUUCGCUGCCAGUGAAGAAAUGAACAAAGAAAAUCUGGGCCAGGCAGGCGUCAAAAGAAAUAGUCUUGCGCUCAACCAGAAAGUCUGUAAUCAUUUUAAGGGUA [A24G A36G A86G] | 0.7
9 | GUUAACGGUCAUAGGCCAUGGAAGCUAGGAGCACCAUUUCGCUGCCAGUGGAGAAAUGAACAAAGAAAAUCUGGGCCAGGCAGGCAUCAAAAGAAAUAGUCUUGCGCUCAACCAGAAAGUCUGUAAUCAUCUUAAGGGUA [A24G A51G U131C] | 0.81
10 | GUUAACGGUCAUAGGCCAUGGAAGCUAGGAGCACCAUUUCGCUGCCAGUGAGGGAAUGAACAAAGAAAAUCUGGGCCAGGCAGGCAUCAAAAGAAAUAGUCUUGCGCUCAACCAGAAAGUCUGUAAUCAUUUUAAGGGUA [A24G A52G A54G] | 1
11 | GUUAACGGUCAUAGGCCAUGGAACCUAGGAGCACCAUUUCGCUGCCAGUGAAGAAAUGAACAAAGAAAAUCUGGGCCAGGCAGGCAUCAAAAGAAAUAGUCUUGCGCUCAACCAGAAAGACUGUAAUCAUUUUAAGGGUG [A24C U120A A140G] | 2.05
12 | GUUAACGGUCAUAGGCCAUGGAAGCUAGGAGCACCAUUUCGCUGCCAGUGAUGAAAUGAACAAAGAAAGUCUGGGCCAGGCAGGCAUCAAAAGAAAUAGUCUUGCGCUCAACCAGAAAGUCUGUAAUCAUUUUAAGGGUA [A24G A52U A69G] | 0.26
13 | GUUAACGGUCAUAGGCCAUGGAAGCUGGGAGCACCAUUUCGCUGCCAGUGAAGAAAUGAACAAAGAAAACCUGGGCCAGGCAGGCACCAAAAGAAAUAGUCUUGCGCUCCACCAGAAGGUCUGUAAUCAUUUUUAGGGUA [A24G A27G U70C U87C A110C A118G A134U] | 0.04
14 | GUUAACGGUCAUAGGCCAUGGAAGCUGGGAGCACCAUUUCGCUGCCAGUGAAGAAAUAAACAAGGAAAAUCUGGGCCAGGCAGGCACCAAAAGAAUUAGUCUUGCGCUCAACCAGAAAGUCUGUAAACAUUUUAAGGGUA [A24G A27G G58A A64G U87C A96U U127A] | 1.09
15 | GUUAACGGUCAUAGGCCAUGGAAGCUAGGAGCACCAUUUCGCUGCCAGUGGAGAAAUGAACAAAGAAGAUCUGGGCCAGGCGGGCAUCAAAAGAAAUAGUCUUGCGCUCAACCAGAAAGUCUGUAAUCAUUUUAAGGGUA [A24G A51G A68G A82G] | 0.74
16 | GUUAACGGUCAUAGGCCAUGGAAGCUAGGGGCACCAUUUCGCUGCCAGUGAAGAAAUGAACAAAGAAAGUCUGGGCCAGGCAGGCAUCAAAAGAGAUAGUCUUGCGCUCAACCAGAAAGUCUGUAAUCAUUUUAAGGGUA [A24G A30G A69G A95G] | 0.77
17 | GUUAACGGUCAUAGGCCAUGGAAGCUAGGAGCGCCAUUUCGCUGCCAGUGAAGAAAUGAACAAAGAAAAUCUGGCCCAGGCAGGCAUCAAAAGAAAUAGUCUUGCGCUCAACCAGAAAGUCUGCAAUCAUUUUAAGGGUA [A24G A33G G75C U124C] | 0.08
18 | GUUAACGGUCAUAGGCCAUGGAAGCUAGGAGCGCCAUUUCGCUGCCAGUGAAGAAAUGAACAAAGAAAAUCUGGGCCAGGCAGGCAUCAAAAGAGAUAGUCUUGCGCUCAACCAGAAAGUCUGUAAUCAUUUUGAGGGUA [A24G A33G A95G A134G] | 1.55
19 | GUUAACGGUCAUAGGCCAUGGAAGCUAGGAGCGCCAUUCCGCUGCCAGAGAAGAAAUGAACAAAGAAAAUCUGGGCCAGGCAGGCAUCAAAAGAAAUAGUCUUGCGCUCAACCAGAAAGUCUGUAAUCAUUUUAAGGGUA [A24G A33G U39C U49A] | 1.18
20 | GUUAACGGUCAUAGGCCAUGGAAGCUAGGGGCACCAUUUCGCUGCCAGUGAAGAAAUGAACAAAGAAAAUCUGGGCCAGGCUGGCAUCAAAAGGAAUAGUCUUGCGCCCAACCAGAAAGUCUGUAAUCAUUUUAAGGGUA [A24G A30G A82U A94G U108C] | 0.01
21 | GUUAACGGUCAUAGGCCAUGGAAGCUAGGGGCACCAUUUCGCUGCCAAUGAAGAAAUGAGCAAAGAAAAUCUGGGCCAGGCAGGCAUCAAAAGAAAUAGUCUUGCGCUCAACCAGAAAGUCUGUAAUCAUUUUAAGGGUA [A24G A30G G48A A60G] | 0.58

Row | Variant | self-cleavage
22 | GUUAACGGUCAUAGGCCAUGGAAGCUAGGAGCACCAUUUCGCUGCCAGUGAAGGAAUGAACAAAGUAAAUCUGGGCCAGGCAGGCAUCAAAAGAAAUAGUCUUGCGCUCAACCAGAAGGUCUGUAAUCAUUUUAAGGGUA [A24G A54G A66U A118G] | 0.29
23 | GUUAACGGUCAUAGGCCAUGGAAGCUAGGAGCUCCAUUUCGCUGCCAGUGAAGAAAUGAGCGAAGAAAAUCCGGGCCAGGCAGGCAUCAAAAGAAAUAGUCUUGCGCUCAACCAGAAAGUCUAUAAUCAUUUUAAGGGUA [A24G A33U A60G A62G U72C G123A] | 0.42
24 | GUUAACGGUCAUAGGCCAUGGAAGCUAGGGGCACCAUUUCGCUGCCAGUGAAGAAAUGAACAAAGAAAAUCUGGGCCAGGCAGGCAUCAAAAGAAAUAGUCUUGCGCUCAACCAGAGAGUCUGUAAUCACUUUAAGGGUA [A24G A30G A117G U130C] | 1.11
25 | GUUAACGGUCAUAGGCCAUGGAAGCUAGGAGCACCAUUUCGCUGCCAGUGAGGAAAUGAACAAAGAAAAUCUGGGCCAGGCAGGCAUCAAAAGAAAUAGUCUUGCGCACAACCAGAAGGUCUGUAAUCAUUUUAAGGGUA [A24G A52G U108A A118G] | 0
26 | GUUAACGGUCAUAGGCCAUGGAAGCUAGGAGCGCCAUUUCGCUGCCAGUGAAGAAAUGAACAACGAAAAUCUGGGCCAGGCAGGCAUCAAAAGGAAUAGUCUUGCGCUCAACCAGAAAGUCUGUAAUCAUUUUAAGGGUA [A24G A33G A64C A94G] | 0.69
27 | GUUAACGGUCAUAGGCCAUGGAAGCUAGGAGCACCAUUUCGCUGCCGGUGAAGAGAUGAACAAAGAAAAUCUGGGCCAGGCAGGCAUCAAAAGAAAUAGUCUUGCGCUCGACCAGAAAGUCUGUAAUCAUUUUAAGGGUA [A24G A47G A55G A110G] | 0.19
28 | GUUAACGGUCAUAGGCCAUGGAAGCUAGGAGCACCAUUUCGCUGCCAGUGAGGAAACGAACAAAGAAAAUCUGGGCCAGGCAGGCAUCAAAAGAAAUAGUCUUGCGCUCAACCAGAAAGUCUGUAAUCAUUUUAAGGGUU [A24G A52G U57C A140U] | 1.35
29 | GUUAACGGUCAUAGGCCAUGGAAGCUAGGGGCACCAUUUCGCUGCCGGUGAAGAAAUGUACAAAGAAAAUCUGGGCCAGGCAGGCAUCAAAAGAAAUAGUCUUGCGCUCAACCAGAAAGUCUGUAAUCAUUUUAAAGGUA [A24G A30G A47G A59U G136A] | 1.83
30 | GUUAACGGUCAUAGGCCAUGGAAGCUAGGUGCACCAUUUCGCUGCCAGUGAAGAAAUGAACAAAGAAAAUCUGGGCCAGGCUGGCAUCAAAAGAAAUAGUCUUGCGCUCAACCAGAGAGUCUGUAAUCAUUUUAAGGGUA [A24G A30U A82U A117G] | 0.27
31 | GUUAACGGUCAUAGGCCAUGGAAGCUAGGGGCACCAUUUCGCCGCCAGUGAAGAAAUGAACAAAGAAAAUCUGGGCCAGGCAGGCAUCAAAAGAAAUAGUCUUGCGCUCAACCAGAAAGUCUGUAAUCAUUUUAAGGGUA [A24G A30G U43C] | 0.72
32 | GUUAACGGUCAUAGGCCAUGGAAGCUAGGUGCACCAUUACGCUGCCAGUGAAGAAAUGAACAAAGAAAAUCUGGGCCAGGCAGGCAUCAAAAGAAAUAGUCUUGCGCUCAACCAGGAAGUCAGUAAUCAUUUUAAGGGUA [A24G A30U U39A A116G U122A] | 0.34
33 | GUUAACGGUCAUAGGCCAUGGAAGCUAGGAGCGCCAUUUCGCUGCCAGUGAAGAAAUGAACAAGGAAAAUCUGGGCCAGGCGGGCAUCAACAGAAAUAGUCUUGCGCUCGACCAGAAAGUCUGUAAUCAUUUUAAGGGUA [A24G A33G A64G A82G A91C A110G] | 0.04
34 | GUUAACGGUCAUAGGCCAUGGAAGCUAGGAGCGCCAUUUCGCUGCCAGUGAAGAGAUGAACAAAGAGAAUCUGGGCCAGGCAGGCAUCAAAAGGAAUAGCCUUGCGCUCAACCAGAAAGUCUGUAAUCAUUUUAAGGGUA [A24G A33G A55G A67G A94G U100C] | 1.9
35 | GUUAACGGUCAUAGGCCAUGGAAGCUAGGAGCACCAUUUCGCUGCCAGUGGAGAAAUGAACAAAGAAAAUCUGGGCCAGGCAGGCAUCAAGAGAAAUAGUCUUGCGCUCAACCAGAAAGUCUGUAAUCAUUUUAAGGGUA [A24G A51G A91G] | 1.38
36 | GUUAACGGUCAUAGGCCAUGGAAGCUAGGGGCACCAUUUCGCUGCCAGUGAAGGAAUGAACAAAGAAAAUCUGGGCCAGGCAGGCAUCAAAAGAAAUAGUCUUGCGCUCAACCAGAAAGUCUGUAAUCAUUUUAAGGGUA [A24G A30G A54G] | 1.01
37 | GUUAACGGUCAUAGGCCAUGGAAGCUAGGGGCACCAUUUCGCUGCCAGUGAAGAACUGAACAAAGAAAGUCUGGGCCAGGCAGGCAUCAAAAGAAAUAGUCUUGCGCUCGACCAGAAAGCCUGUAAUCAUUUUAAGGGUA [A24G A30G A56C A69G A110G U120C] | 0.17
38 | GUUAACGGUCAUAGGCCAUGGAAGCUAGGAGCACCAUUUCGCUGCCAGUGGAGAAAUGAACAAAGAAAAUCUGGGCCAGGCAGGCAUCAAAAGAGAUAGUCUUGCGCUCAACCAGAAAGUCCGUAAUCAUUUUAAGGGUA [A24G A51G A95G U122C] | 1.06
39 | GUUAACGGUCAUAGGCCAUGGAAGCUAGGAGCGCCACUUCGCUGCCAGUGAAGAAACGAACAGAGAAAAUCUGGGCCAGGCAGGCAUCAAAAGAAAUAGUCUUGCGCUCAACCAGAAAGUCUGUAAUCAUUUUAAGGGUA [A24G A33G U37C U57C A63G] | 0.56
40 | GUUAACGGUCAUAGGCCAUGGAAGCUAGGAGCACCAUUUCGCUGCCGGUGAAGAAAUGAACAAAGAAAAUCUGGGCCAGGCAGGCAUCAAAAGAAAUAGUCUUGCGCACAACCAGAAAGUCUGUAAUCAUUUUAAGGGUA [A24G A47G U108A] | 0.06
41 | GUUAACGGUCAUAGGCCAUGGAAGCUAGGAGCUCCAUUUCGCUGCCAGUGUAGAAAUGAACAAAGAAAAUCUGGGCCAGGCAGGCAUCAAAAGAAAUAGUCUUGCGCUCAACCAGAAAGUCUGUAAUCAUUUCAAGGGUA [A24G A33U A51U U133C] | 1.81
